According to a compilation of properties of binary mixtures (doi:10.1016/j.jct.2023.107038):
Some of these densities may be calculated back from excess volumes.

Experiment: xn = mol fraction of the nth substance listed
Details: 96.7 kPa

OCC(F)(F)F + CC(=O)[O-].CC[n+]1ccn(C)c1
mass density [kg/m3]
Details | 293.15 K | 298.15 K | 303.15 K | 308.15 K | 313.15 K | 318.15 K | 323.15 K | 328.15 K | 333.15 K
x1 = 0.048 | 1110.2 | – | – | 1100.9 | 1097.8 | 1094.7 | 1091.7 | 1088.7 | 1085.6
x1 = 0.103 | 1117.7 | 1114.6 | 1111.4 | 1108.2 | 1105.1 | 1102 | 1098.8 | 1095.7 | –
x1 = 0.204 | – | 1130.6 | 1127.3 | – | 1120.7 | 1117.3 | 1114 | 1110.8 | 1107.5
x1 = 0.298 | 1152.4 | 1148.8 | 1145.3 | 1141.8 | 1138.2 | 1134.7 | 1131.3 | – | 1124.4
x1 = 0.402 | 1173.4 | – | – | 1162.1 | 1158.4 | 1154.6 | – | 1147.2 | 1143.5
x1 = 0.603 | – | 1221 | 1216.5 | 1212 | 1207.6 | – | 1198.7 | 1194.3 | –
x1 = 0.801 | 1296.9 | 1291.4 | 1285.7 | 1280.3 | – | 1269.2 | – | 1258.2 | 1252.7
x1 = 1 | 1390.9 | 1382.5 | 1373.9 | 1365.2 | – | 1347.5 | 1338.4 | 1329.1 | –

OCC(F)(F)F + CC[n+]1ccn(C)c1.O=S(=O)([N-]S(=O)(=O)C(F)(F)F)C(F)(F)F
mass density [kg/m3]
Details | 293.15 K | 298.15 K | 303.15 K | 308.15 K | 313.15 K | 318.15 K | 323.15 K | 328.15 K | 333.15 K
x1 = 0.051 | – | 1516.8 | 1511.8 | 1506.7 | – | 1496.7 | 1491.7 | 1486.8 | 1481.9
x1 = 0.099 | 1520 | 1514.9 | 1509.8 | 1504.8 | 1499.7 | 1494.7 | – | 1484.7 | 1479.7
x1 = 0.204 | 1516.2 | 1511 | 1505.8 | – | 1495.3 | 1490.3 | 1485.2 | 1480 | 1474.7
x1 = 0.303 | – | 1506.1 | 1500.9 | 1495.6 | 1490.3 | 1485.1 | 1479.9 | 1474.4 | 1469.3
x1 = 0.396 | – | 1500 | 1494.5 | 1489.1 | – | 1478.4 | 1473 | 1467.7 | –
x1 = 0.599 | 1488.5 | 1482.7 | – | 1471.1 | 1465.3 | – | 1453.8 | 1448 | 1442.3
x1 = 0.799 | – | 1451.7 | 1445.1 | 1438.6 | 1432 | 1425.4 | 1418.8 | – | 1405.7
x1 = 1 | 1390.9 | 1382.5 | 1373.9 | – | 1356.4 | 1347.5 | 1338.4 | 1329.1 | –

CC[n+]1ccn(C)c1.O=S(=O)([N-]S(=O)(=O)C(F)(F)F)C(F)(F)F + OCC(F)(F)F
x2 = 0
Details | mass density [kg/m3]
293.15 K | 1523.3
298.15 K | 1518.3
303.15 K | 1513.3
318.15 K | 1498.3
323.15 K | 1493.4
328.15 K | 1488.4
333.15 K | 1483.5

CC(=O)[O-].CC[n+]1ccn(C)c1 + OCC(F)(F)F
x2 = 0
Details | mass density [kg/m3]
293.15 K | 1103.2
298.15 K | 1100
303.15 K | 1097.1
308.15 K | 1094.1
323.15 K | 1085.1
328.15 K | 1082.1
333.15 K | 1079.1
